The RNAGym collection of RNA variant scans (doi:10.1073/pnas.2313332121)
This sample is rich in variants without activity.

B1: TPR 5TU (parent)
chain: GGAUCUUCUCGAUCUAACAAAAAAGACAAAUCUGCCACAAAGCUUGAGAGCAUCUUCGGAUGCAGAGGCGGCAGCCUUCGGUGGCGCGAUAGCGCCAACGUUCUCAACUAUGACACGCAAAACGCGUGCUCCGUUGAAUGGAGUUUAUCAUG

Variants of: B1
Experiment: polymerase ribozyme fitness, log enrichment relative to wild type (log ratio); higher = more active; in vitro selection for triplet polymerase activity
In short: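 Mutant libraries of both subunits of a heterodimeric triplet polymerase ribozyme were PCR-built, transcribed, and selected once in triplicate, with frozen incubation at −7 °C and capture of gel-excised extended constructs on streptavidin beads before RT-PCR. Illumina sequencing of input and output libraries was filtered to genotypes with ≥10 input reads and ≥1 read per output. Fitness is the logarithm of genotype enrichment over wild-type enrichment, using inverse-variance-weighted replicate averages. The logarithm is base 2.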

Variant | polymerase ribozyme fitness (log ratio)
GGAUCUUCUCGAUCUAACAAAAAAGACAAAUCUGCCACAAAGCUUGAGAGCAUCUUCGGAUGCAGAGGCCGCAGCCUUCGGUGGUGCGCUAGCGCCAACGUUCUCAACUAUGACACGCAAAACGCGUGCUCCGUUGAAUGGAGUUUAUCAUG [G70C C85U A89C] | ≤ -4.2
GGAUCUUCUCGAUCUAACAAAAAAGACAAAUCUGCCACAAAGCUUGAGAGCAUCUUCGGAUGCAGAGGCCGCAGCCUUCAGUGGCGCGAUAGCGCCAACGUUCUCAACUAUGACACGCAAAACGCGUGCUCCGUUGAACGGAGUUUAUCAUG [G70C G80A U139C] | ≤ -4.2
GGAUCUUCUCGAUCUAACAAAAAAGACAAAUCUGCCACAAAGCUUGAGAGCAUCUUCGGAUGCAGAGGCGACAGCCUUCGGUGGCGCGAUAGGGCCAACGUUCUCAACUAUGACACGCAAAACGCGUGCUCCGUUGAAUGGAGUUUAUCAUG [G71A C93G] | ≤ -4.2
GGAUCUUCUCGAUCUAACAAAAAAGACAAAUCUGCCACAAAGCUUGAGAGCAUCUUCGGAUGCAGAGGCUGCAGCCUUAGGUGGCGCGAUAGCGCGAACGUUCUCAACUAUGACACGCAAAACGCGUGCUCCGUUGAAUGGAGUUUAUCAUG [G70U C79A C96G] | ≤ -4.2
GGAUCUUCUCGAUCUAACAAAAAAGACAAAUCUGCCACAAAGCUUGAGAGCAUCUUCGGAUGCAGAGGCUGCAGCCUUCGGAGGCGCGAUAGUGCCAACGUUCUCAACUGUGACACGCAAAACGCGUGCUCCGUAGAAUGGAGUUUAUCAUG [G70U U82A C93U A110G U135A] | ≤ -4.2
GGAUCUUCUCGAUCUAACAAAAAAGACAAAUCUGCCACAAAGCUUGAGAGCAUCUUCGGAUGCAGAGGCGACAGCCUUUGGUGGCGCGAUAGCGCCAACGUUCUCAACUAUGACACGCAAAACGCGUGCUCCGUUGAAUGGAGUUUAUCAUG [G71A C79U] | ≤ -4.2
GGAUCUUCUCGAUCUAACAAAAAAGACAAAUCUGCCACAAAGCUUGAGAGCAUCUUCGGAUGCAGAGGCUGCAGCCUUCGGUGGCGCGAUUGCGUCAACGUUCUCAACUAUGACACGCAAAACGCGUGCUCCGUUGAAUGGAGUUUAUCAUG [G70U A91U C95U] | ≤ -4.2
GGAUCUUCUCGAUCUAACAAAAAAGACAAAUCUGCCACAAAGCUUGAGAGCAUCUUCGGAUGCAGAGGCCGCAGCCUUCGGUGGCGAGAUAGCGCCAACGUUCUCAACUAUGACACGCAAAACGCGUGCUCCGUUGAAUGGAGUUUAUCAUG [G70C C87A] | ≤ -4.2
GGAUCUUCUCGAUCUAACAAAAAAGACAAAUCUGCCACAAAGCUUGAGAGCAUCUUCGGAUGCAGAGGCCGCAGCCUUCGGUGGCGGGAUAGCGCCAACGUUCUCAACUAUGACACGCAAAACGCGUGCUCCGUUGAAUGGAGUUUAUCAUG [G70C C87G] | ≤ -4.2
GGAUCUUCUCGAUCUAACAAAAAAGACAAAUCUGCCACAAAGCUUGAGAGCAUCUUCGGAUGCAGAGGCGACAGCCUUUGGUGGCCCGAUAGCGCCGACGGUCUCAACUUUGACACGCAAAACGCGUGCUCCAUUGAAUGGAGUUUAUCAUG [G71A C79U G86C A97G U101G A110U G133A] | ≤ -4.2
GGAUCUUCUCGAUCUAACAAAAAAGACAAAUCUGCCACAAAGCUUGAGAGCAUCUUCGGAUGCAGAGGCAGCAGCCUUCGGUGGCGCGAUAGCGCCAACGUUCUCAACUAUGACACGCAAAACGCGUGCUCCGUCGAAUGGAGGUUAUCAUG [G70A U135C U144G] | ≤ -4.2
GGAUCUUCUCGAUCUAACAAAAAAGACAAAUCUGCCACAAAGCUUGAGAGCAUCUUCGGAUGCAGAGGCAGCAGCCUUCGGUGGCGAGAUAGCGCCAACGUUCUCAACUAUGACACGCAAAACGCGUGCUCCGUUGAAUGGAGUUUAUCAUG [G70A C87A] | ≤ -4.2
GGAUCUUCUCGAUCUAACAAAAAAGACAAAUCUGCCACAAAGCUUGAGAGCAUCUUCGGAUGCAGAGGCGACAGCCUUCCGUGGCGCGAUAGCGCCAACGUUCUCAACUAUGACACGCAAAACGCGUGCUCCGUUGAAUGGAGUUUAUCAUG [G71A G80C] | ≤ -4.2
GGAUCUUCUCGAUCUAACAAAAAAGACAAAUCUGCCACAAAGCUUGAGAGCAUCUUCGGAUGCAGAGGCCGCAGCCUUCGGUGGCGCGAUAGCCCCAACGUUCUCAACUAUGACACGCAAAACGCGUGCUCCGUUGAAUGGAGUUUAUCAUG [G70C G94C] | -3.44
GGAUCUUCUCGAUCUAACAAAAAAGACAAAUCUGCCACAAAGCUUGAGAGCAUCUUCGGAUGCAGAGGCGACAGCUUUCGGUGGAGCGAUAGCGCCAACGUUCUCAACUAUGACACGCAAAACGCGUGCUCCGUUGAAUGGAGUUUAUCAUG [G71A C76U C85A] | ≤ -4.2
GGAUCUUCUCGAUCUAACAAAAAAGACAAAUCUGCCACAAAGCUUGAGAGCAUCUUCGGAUGCAGAGGCAGCAGCCUUCGGUGGCGCGAUAGCGCCAACGUUCUCAACUAUGACACGCAAAACGCGUGCUCCGUUGAAUCGAGUUUAACAUG [G70A G140C U148A] | ≤ -4.2
GGAUCUUCUCGAUCUAACAAAAAAGACAAAUCUGCCACAAAGCUUGAGAGCAUCUUCGGAUGCAGAGGCAGCAGCCUUCGGUGGCGCGAUAGCGCUAACGUUGUCAACGAUGACACGCAAAACGCGUGCUCAGUUGAAUGGAGUUUAUCAUG [G70A C96U C103G U109G C132A] | ≤ -4.2
GGAUCUUCUCGAUCUAACAAAAAAGACAAAUCUGCCACAAAGCUUGAGAGCAUCUUCGGAUGCAGAGGCAGCAGCCUUCGGUGGCGCGAUAGCGCCAAUGUUCUCAACUAUGACACGCAAAACGCGUGCUCCGGUGAAUCGACUUUAUCAUG [G70A C99U U134G G140C G143C] | ≤ -4.2
GGAUCUUCUCGAUCUAACAAAAAAGACAAAUCUGCCACAAAGCUUGAGAGCAUCUUCGGAUGCAGAGGCGACAGCCUUCGGUGGCGCGAUAGCGCCAACGUUCUCAACUAUGACACGCAAAACACGUGCUCCGAUGAAUGGAGUUUAUCAUG [G71A G124A U134A] | ≤ -4.2

Variant | polymerase ribozyme fitness (log ratio)
GGAUCUUCUCGAUCUAACAAAAAAGACAAAUCUGCCACAAAGCUUGAGAGCAUCUUCGGAUGCAGAGGCGAUAGCCUUCGGUGCCGCGAUAGCGCCAACGUUCUCAACUAUGACACGCAAAACCCGUGCUCCGUUGAAUGGAGUUUAUCAUG [G71A C72U G84C G124C] | ≤ -4.2
GGAUCUUCUCGAUCUAACAAAAAAGACAAAUCUGCCACAAAGCUUGAGAGCAUCUUCGGAUGCAGAGGCUGCAGCCUUCGGUGGCGCGAUAGCGCUAACGUUCUCAACUUUGACACGCAAAACGCGUGCUCCGUUGAAUGGAGUUUAUCAUG [G70U C96U A110U] | ≤ -4.2
GGAUCUUCUCGAUCUAACAAAAAAGACAAAUCUGCCACAAAGCUUGAGAGCAUCUUCGGAUGCAGAGGCGACAGCCUUCGGUGGCGAGAUAGCGCCAAGGUUCUCAACUAUGACACGCAAAACGCGUGCUCCGUUGAAUGAAGUUUAUCAUG [G71A C87A C99G G141A] | ≤ -4.2
GGAUCUUCUCGAUCUAACAAAAAAGACAAAUCUGCCACAAAGCUUGAGAGCAUCUUCGGAUGCAGAGGCAGCAGCCUUCCGUGGCGCGAUAGCGCCAACGUUCUCAACUAUGACAUGCAAAACGCGUGCUCCGUUGAAUGGAGUUUAUCAUG [G70A G80C C116U] | ≤ -4.2
GGAUCUUCUCGAUCUAACAAAAAAGACAAAUCUGCCACAAAGCUUGAGAGCAUCUUCGGAUGCAGAGGCGACAGCCUUCGGUGGCGCGAUAGCGCCAACGUUCUCAACUAUGACACGCAAAACGCGUGCUCCGUUGAAUGGAGUUUAUCAUG [G71A] | -2.47
GGAUCUUCUCGAUCUAACAAAAAAGACAAAUCUGCCACAAAGCUUGAGAGCAUCUUCGGAUGCAGAGGCUGCAGCGUUCGGAGGCGCGAUAGCGCCAACGUUCUCAACUAUGACAUGCAAAACGCGUGCUCCGUUGAAUGGAGUUUAUCAUG [G70U C76G U82A C116U] | ≤ -4.2
GGAUCUUCUCGAUCUAACAAAAAAGACAAAUCUGCCACAAAGCUUGAGAGCAUCUUCGGAUGCAGAGGCGACAGCCUUCGGUAGCGCGAUAGCACCAACGUUCUCAACUAUGACACGCAAAACGCAUGCUCCGUUGAAUGGAGUUUAUCAUG [G71A G83A G94A G126A] | ≤ -4.2
GGAUCUUCUCGAUCUAACAAAAAAGACAAAUCUGCCACAAAGCUUGAGAGCAUCUUCGGAUGCAGAGGCAGCAGCCUUCGGUGGCGCGAUAGAGCCAACGUUCUCAACUAUGACACGCAAAACGCGUGCUCCGUUGAAUGGAGUUUAUCAUG [G70A C93A] | ≤ -4.2
GGAUCUUCUCGAUCUAACAAAAAAGACAAAUCUGCCACAAAGCUUGAGAGCAUCUUCGGAUGCAGAGGCUGCAGCCUUCGGUGGCGCGAUAGCGCCAACGUUCUCAACUAUGACACGCAAAACGCGUGCUUCGUUGGAUGGAGUUUAUCAUG [G70U C131U A137G] | -4.05
GGAUCUUCUCGAUCUAACAAAAAAGACAAAUCUGCCACAAAGCUUGAGAGCAUCUUCGGAUGCAGAGGCCGCAGCCUUCGGUGGCGCGAUAGCGCCAACGGUCUCAACUAUGACACGCAAAACGCGUGCUCCGUUUAAUGGAGUGUAUCAUG [G70C U101G G136U U145G] | ≤ -4.2
GGAUCUUCUCGAUCUAACAAAAAAGACAAAUCUGCCACAAAGCUUGAGAGCAUCUUCGGAUGCAGAGGCAGCAGCCUUCGGUGGCGAGUUAGCGCCAACGGUCUCAACUAUGACACGAAAAACCCGUGCUCCGUUGAAUGGAGUUUAUCAUG [G70A C87A A89U U101G C118A G124C] | ≤ -4.2
GGAUCUUCUCGAUCUAACAAAAAAGACAAAUCUGCCACAAAGCUUGAGAGCAUCUUCGGAUGCAGAGGCGACAGCCUUCGGUGGCGCGGUAGCGCCAACGUUCUCAACUAUGACACGCAAAACGCGUGCUCCGUUCAAUGGAGUUUAUCAUG [G71A A89G G136C] | ≤ -4.2
GGAUCUUCUCGAUCUAACAAAAAAGACAAAUCUGCCACAAAGCUUGAGAGCAUCUUCGGAUGCAGAGGCCGCAGCCUUCGGUGGCGAGAUAGCGCCAACGUUCUCAACUAUGACACGCAAAACGCGUGCUCCGUUGAAUAGAGUUUAUCAUG [G70C C87A G140A] | ≤ -4.2
GGAUCUUCUCGAUCUAACAAAAAAGACAAAUCUGCCACAAAGCUUGAGAGCAUCUUCGGAUGCAGAGGCAGCAGCCUUCGGUGGCGCGAUAGCGCGAAUGUUCUCAACUAUGACACGCAAAACGCGCGCUCCGUUGAAUGGAGUUUAUCAUG [G70A C96G C99U U127C] | ≤ -4.2
GGAUCUUCUCGAUCUAACAAAAAAGACAAAUCUGCCACAAAGCUUGAGAGCAUCUUCGGAUGCAGAGGCGACAGCCUUCGGUGGCGAGAUAGCGCCAACGUUCUCAACUAUGACACGCAAAACGCGUGCUCCGUUCAAUGGAGUUUAUCAUG [G71A C87A G136C] | ≤ -4.2
GGAUCUUCUCGAUCUAACAAAAAAGACAAAUCUGCCACAAAGCUUGAGAGCAUCUUCGGAUGCAGAGGCCGCAGCCUUCGGUGGCGAGAUAGCGCCAACGAUCUCAACUAUGACACGCAAAACGCGUACUCCGUUUAAUGGAGUUUAUCAUG [G70C C87A U101A G128A G136U] | ≤ -4.2
GGAUCUUCUCGAUCUAACAAAAAAGACAAAUCUGCCACAAAGCUUGAGAGCAUCUUCGGAUGCAGAGGCUGCAGCCUUCGGUGGAGCGAUAGCGUCAACGUUCUCAACUAUGACACGCAAAACGCGUGCACCGUUGAAUGGAGUUUAUCAUG [G70U C85A C95U U130A] | ≤ -4.2
GGAUCUUCUCGAUCUAACAAAAAAGACAAAUCUGCCACAAAGCUUGAGAGCAUCUUCGGAUGCAGAGGCCGCAGCCUUCGGUAGCGUGAUAGCGCCAACGUUCUCAACUAUGACACCCAAAACGCGUGCUCCGUUGAAUGGAGUUUAUCAUG [G70C G83A C87U G117C] | -3.9
GGAUCUUCUCGAUCUAACAAAAAAGACAAAUCUGCCACAAAGCUUGAGAGCAUCUUCGGAUGCAGAGGCCGCAGCCUUCGGUGGCGCGAUAGCGCCAAUGUUCUCAACUAUGACACGCAAAACGCGUGCUCCGUUGAAUGGAGUUUAUCAUA [G70C C99U G152A] | ≤ -4.2
